Source: PubChem BioAssay AID504332 (National Center for Advancing Translational Sciences (NCATS), 2011)
Several values for one entry are separate records, joined by “and”; a condition that tells them apart may be missing. Equal values may be shown once. Hit rate of the full screen: of about 350,000 compounds, about 31,000 (8.9%) were called active. Inconclusive means that the source gave no clear call. Such entries were picked first, then a sample of the others. Calls follow the shape of the dose curve; as a rule, active = well fitted inhibition curve with a large enough effect; inconclusive = small, poorly fitted or top-dose-only effect; inactive = no such curve, though single readings can be large or run the other way. A potency beside an inconclusive call is a rough fit, not a confirmed value.

Target: Histone-lysine N-methyltransferase EHMT2 (Homo sapiens) (UniProt Q96KQ7)
Experiment: qHTS Assay for Inhibitors of Histone Lysine Methyltransferase G9a; also: nearly all actives have a fitted effect of over 75% in size
Details: G9a H3K9 monomethylation, AlphaScreen, 2 h; activity, negative = inhibition: at 59 µM (top of the series) unless noted
Procedure, shortened: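 Quantitative HTS format: methyltransferase activity on a biotin-tagged H3K9 peptide is measured by AlphaScreen, using a rabbit anti-monomethyl-H3K9 antibody with streptavidin donor and anti-IgG acceptor beads. Final levels are 20 nM enzyme, 500 nM peptide, 20 uM SAM; 2 h RT.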
% is scaled to controls: 0 for no effect and ±100 for the full control effect; potency is read from the fitted curve at half-maximal effect; tags tell the direction and shape of the fitted curve.

UniProt Q96KQ7, sequence (Q96KQ7 whole entry, looked up): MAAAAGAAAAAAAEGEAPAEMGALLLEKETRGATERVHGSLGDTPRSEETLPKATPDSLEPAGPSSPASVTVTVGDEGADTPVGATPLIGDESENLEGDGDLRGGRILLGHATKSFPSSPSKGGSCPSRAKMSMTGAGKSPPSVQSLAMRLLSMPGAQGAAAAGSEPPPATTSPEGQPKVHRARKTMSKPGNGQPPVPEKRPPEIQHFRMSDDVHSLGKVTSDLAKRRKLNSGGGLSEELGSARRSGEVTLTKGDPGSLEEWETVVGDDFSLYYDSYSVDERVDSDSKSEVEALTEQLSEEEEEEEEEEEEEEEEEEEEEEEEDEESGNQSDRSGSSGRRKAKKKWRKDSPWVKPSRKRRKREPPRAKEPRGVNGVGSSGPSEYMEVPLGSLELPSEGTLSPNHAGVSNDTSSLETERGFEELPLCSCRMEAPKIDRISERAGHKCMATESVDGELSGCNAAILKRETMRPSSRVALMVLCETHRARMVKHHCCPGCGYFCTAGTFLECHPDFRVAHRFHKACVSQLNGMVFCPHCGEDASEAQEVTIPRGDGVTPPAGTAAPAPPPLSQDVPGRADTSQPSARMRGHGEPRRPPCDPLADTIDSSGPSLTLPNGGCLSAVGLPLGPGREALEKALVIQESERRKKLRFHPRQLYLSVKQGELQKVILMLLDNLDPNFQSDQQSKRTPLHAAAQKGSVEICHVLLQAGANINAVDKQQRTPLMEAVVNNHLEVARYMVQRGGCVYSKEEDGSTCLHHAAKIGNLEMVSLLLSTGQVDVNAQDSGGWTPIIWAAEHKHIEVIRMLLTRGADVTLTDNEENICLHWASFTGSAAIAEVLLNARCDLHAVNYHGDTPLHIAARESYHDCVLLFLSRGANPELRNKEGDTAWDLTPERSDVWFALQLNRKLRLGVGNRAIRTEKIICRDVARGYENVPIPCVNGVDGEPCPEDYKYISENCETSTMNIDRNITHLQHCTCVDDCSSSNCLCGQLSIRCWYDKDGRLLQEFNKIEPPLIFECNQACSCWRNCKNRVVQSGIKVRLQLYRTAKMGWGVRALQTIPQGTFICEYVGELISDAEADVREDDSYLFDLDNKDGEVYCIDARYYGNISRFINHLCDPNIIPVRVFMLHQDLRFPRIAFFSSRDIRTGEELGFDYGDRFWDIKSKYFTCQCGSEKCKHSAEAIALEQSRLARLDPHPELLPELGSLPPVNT

Row | Compound | Potency | activity, negative = inhibition
1 | O=C(O)CSC1=NC(=Nc2ccc(Cl)cc2)C2(CCCCC2)N1c1cccc(C(=O)O)c1 | active: 4.47 µM | –
2 | CC(Sc1nnc(N)s1)C(=O)c1c(N)n(C)c(=O)n(C)c1=O (stereo not drawn) | active: 50.1 µM | –
3 | COc1cc(/C=N/n2cnnc2)ccc1OC(=O)c1ccncc1 | inconclusive: 39.8 µM [inhibitor, single point] | –
4 | Cc1cc(C)c2c(CC(=O)Nc3ccc(S(=O)(=O)Nc4nc(C)cc(C)n4)cc3)coc2c1 | active: 14.1 µM | –
5 | COC(=O)c1cc(Cl)c(NC(=O)c2ccc(C(C)(C)C)cc2)cc1OC | inactive | –
6 | Cc1ccc(S(=O)(=O)n2nc(-c3ccc(Cl)cc3)nc2NCc2ccc(F)cc2)cc1 | inactive | –
7 | Cc1cccc(C)c1-n1c(C)cc(/C=N\NC(=O)CC(=O)NC2CCCCC2)c1C | inactive | –
8 | CC(=O)N1CCCc2cc(S(=O)(=O)N3CCCC(C(=O)N4CCN(c5ccccc5)CC4)C3)ccc21 (stereo not drawn) | inactive and inconclusive: 15.8 µM [inhibitor, partial curve, poor fit] | –
9 | O=C(Cn1cc2c(n1)CCCC2)Nc1ccccc1Br | inconclusive: 79.4 µM [inhibitor, single point] | –
10 | CC1CCCC(NC(=O)NC(=O)COC(=O)C2=NN(c3ccccc3)C(=O)CC2)C1C (stereo not drawn) | active: 10 µM | –
11 | Cc1ccc2nc3c(cc(C(=O)NCc4cccnc4)c(=N)n3C(C)C)c(=O)n2c1 | active: 39.8 µM | –
12 | Cc1nc2sc3c(c2c(=O)o1)CCC3 | inconclusive: 39.8 µM [inhibitor, partial curve, poor fit] | –
13 | COc1ccc(Nc2oc(COc3ccc(OC)cc3)nc2C#N)cc1 | active: 11.2 µM | –
14 | Cc1cccc(CSCc2nnc(N)s2)c1 | – | inconclusive: -75.9% [inhibitor]
15 | CCCCn1cnc2cc(NCc3ccccc3Cl)ccc21 | active: 14.1 µM | –
16 | CSc1ccccc1NC(=O)Cn1c([N+](=O)[O-])cnc1C | inactive | –
17 | O=C(NCC(c1cccs1)N1CCOCC1)C1CCN(S(=O)(=O)c2cccc(C(F)(F)F)c2)CC1 (stereo not drawn) | inconclusive: 3.16 µM [inhibitor, full curve, poor fit] | –
18 | Cc1ccc(NC(=O)C(=O)NCC(c2cccnc2)N2CCN(Cc3ccccc3)CC2)cc1F (stereo not drawn) | inconclusive: 0.158 µM [inhibitor, partial curve, poor fit] | –
19 | COc1ccc(NC(=O)CCc2nc3ccccc3s2)c(OC)c1 | inconclusive: 44.7 µM [inhibitor, partial curve, poor fit] | –
20 | COc1ccc(N2CCN(C(=O)/C=C/c3ccco3)CC2)cc1 | active: 31.6 µM | –
21 | O=C(CC(Cc1ccccc1)c1ccco1)NCc1ccco1 (stereo not drawn) | inconclusive: 44.7 µM [inhibitor, partial curve, poor fit] | –
22 | O=C(Nc1ccccc1N1CCN(C(=O)c2ccccc2)CC1)c1ccco1 | inactive | –
23 | O=C(CC1Nc2ccccc2NC1=O)NCCc1ccccc1 (stereo not drawn) | active: 11.2 µM | –
24 | CCC(=O)N1CCN(c2ccc(NC(=S)NC(=O)c3cccc([N+](=O)[O-])c3)cc2)CC1 | inconclusive: 39.8 µM [inhibitor, single point] | –

Row | Compound | Potency | activity, negative = inhibition
25 | COc1ccccc1CNS(=O)(=O)N(C)C | inactive | –
26 | CC(=O)C1=C(O)C(=O)N(Cc2ccco2)C1c1ccccc1 (stereo not drawn) | active: 50.1 µM | –
27 | CC(C)C[C@@H]1NC(=O)[C@H](C(C)C)NC(=O)c2cc([N+](=O)[O-])cc(I)c2NCC[C@@H](C(N)=O)NC1=O | active: 12.6 µM | –
28 | COC(c1ccccc1)c1nnc(CCC(=O)N2CCCCCCC2)o1 (stereo not drawn) | inactive | –
29 | CCN(CCn1cccn1)Cc1c(C(=O)N2CCCCCCC2)nc2ccc(Cl)cn12 | active: 79.4 µM | –
30 | CC(C)CN(CCNC(=O)CC1Oc2ccccc2NC1=O)CC(C)C (stereo not drawn) | inconclusive: 79.4 µM [inhibitor, partial curve, poor fit] | –
31 | COc1ccc(NC(=O)c2cc(=O)c3ccccc3o2)cc1Cl | active: 56.2 µM | –
32 | COc1ccccc1NC(=O)c1c(N=Cc2ccccc2O)cnn1C | inconclusive: 15.8 µM [inhibitor, full curve] | –
33 | CC(Sc1ccccn1)C(=O)Nc1ccccc1 (stereo not drawn) | inconclusive: 25.1 µM [inhibitor, single point] | –
34 | Cc1csc(CN(C)C(=O)c2cn(Cc3cccc4ccccc34)nn2)n1 | inconclusive: 89.1 µM [inhibitor, single point] | –
35 | COc1ccc2nc(N(CCN(C)C)C(=O)c3ccc(C(=O)c4ccccc4)cc3)sc2c1 | active: 35.5 µM | –
36 | Cc1ccc(-n2nc(C(=O)O)cc2-c2ccccc2Cl)cc1 | inconclusive: 89.1 µM [inhibitor, single point] | –
37 | O=C(CSc1nc2ccccc2[nH]1)Nc1nc(-c2cccc(Br)c2)cs1 | inconclusive: 28.2 µM [inhibitor, single point] | –
38 | Clc1ccc(/C=N\Nc2ccccc2)cc1 | – | inactive: -5.1% [at 12.7 µM]
39 | CCCCn1c(N)c(N(C)C(=O)c2ccc(-n3cccn3)cc2)c(=O)[nH]c1=O | inconclusive: 1.78 µM [inhibitor, partial curve, poor fit] | –
40 | CC(=O)NCc1ccc(C(=O)CCl)cc1 | inconclusive: 89.1 µM [inhibitor, single point] | –
41 | Cc1ccc2c(c1)C(c1ccc(F)cc1)N(C(=O)c1ccc(S(=O)(=O)N3CCCCC3)cc1)CC(=O)N2 (stereo not drawn) | inactive | –
42 | CCOc1ccc2c(c1)/C(=C(\C(Cl)=C(Cl)Cl)[N+](=O)[O-])N2 | active: 44.7 µM | –
43 | CCOC(=O)CSc1ccccn1 | active: 39.8 µM | –
44 | O=C(NCC(c1cccs1)N1CCOCC1)c1ccccc1NS(=O)(=O)c1ccc(Cl)c([N+](=O)[O-])c1 (stereo not drawn) | active: 44.7 µM | –
45 | Cc1ccc(S(=O)(=O)c2nnn(-c3ccc(F)c(Cl)c3)c2N)cc1 | inactive | –
46 | Cc1ccccc1Nc1nnc(SCC(=O)NC(=O)NCc2ccco2)s1 | active: 35.5 µM | –
47 | CC(c1ccco1)N(C(=O)c1ccccc1NS(=O)(=O)c1ccc(Cl)c([N+](=O)[O-])c1)c1ccccn1 (stereo not drawn) | inconclusive: 28.2 µM [inhibitor, single point] | –
48 | C/C(=N\NC(=O)c1nnn(-c2nonc2N)c1CN1CCOCC1)c1ccc(CC(C)C)cc1 | inconclusive: 89.1 µM [inhibitor, single point] | –
